Reference: the supplement of paper PMC12217912
The other results are listed elsewhere or left out. Sequences were assembled here from the parent chain. Inactive controls read about 0.05.

B1: TEV protease; numbered along this chain (parent)
chain: MGESLFKGPRDYNPISSSICHLTNESDGHTTSLYGIGFGPFIITNKHLFRRNNGTLVVQSLHGVFKVKDTTTLQQHLVDGRDMIIIRMPKDFPPFPQKLKFREPQREERICLVTTNFQTKSMSSMVSDTSCTFPSGDGIFWKHWIQTKDGQCGSPLVSTRDGFIVGIHSASNFTNTNNYFTSVPKNFMELLTNQEAQQWVSGWRLNADSVLWGGHKVFMVKPEEPFQPVKEATQL

Variants of: B1
Assay: raw area under fraction-flipped curve 0-4 h after induction (AUC4h, not background-subtracted), DNA-recorder readout of cleavage of the substrate (dimensionless); higher = more cleavage of the substrate by the protease variant
Conditions: temperature: 34 °C; time window: 0-4 h after rhamnose induction
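Further: Bxb1 expression induced with 0.2% (w/v) L-rhamnose at OD600 near 0.5, cultures sampled hourly, flipped fraction per protease–substrate barcode pair counted by paired-end Illumina sequencing.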

Variant | area with substrate ENCYFQS | area with substrate ENDYFQS | area with substrate ENEYFQS | area with substrate ENFYFQS | area with substrate ENGYFQS | area with substrate ENIYFQS | area with substrate ENKYFQS | area with substrate ENMYFQS | area with substrate ENNYFQS | area with substrate ENQYFQS | area with substrate ENRYFQS | area with substrate ENTYFQS | area with substrate ENVYFQS | area with substrate ENWYFQS | area with substrate ENHYFQS | area with substrate ENSYFQS | area with substrate ENYYFQS | area with substrate ENPYFQS
MGESLFKGPRDYNPISSSICHLTNESDGHTTSLYGIGFGPFIITNKHLFRRNNGTLVVQSLHGVFKVKDTTTLQQHLVDGRDMIIIRMPKDFPPFPQKLKFREPQREERICLVTTNFQTKSMSSMVSDTSCTFPSGDGIFWKHWIQTKDGQCGSPLVSTRDGIIVGIHSASNFTNTNNYFTSVPKNFMELLTNQEAQQWVSGWRLNADSVLWGGHKVFMVKPEEPFQPVKEATQL [F163I] | 0.0642 | 0.0452 | 0.0578 | 0.0904 | 0.0509 | 0.102 | 0.0682 | 0.097 | 0.05 | 0.057 | 0.0537 | 0.053 | 0.0717 | 0.0755 |  |  |  | 
MGESLFKGPRDYNPISSSICHLTNESDGHTTSLYGIGFGPFIITNKHLFRRNNGTLVVQSLHGVFKVKDTTTLQQHLVDGRDMIIIRMPKDFPPFPQKLKFREPQREERICLVTTNFQTKSMSSMVSDTSCTFPSGDGIFWKHWIQTKDGQCGSPLESTRDGFIVGIHSASNFTNTNNYFTSVPKNFMELLTNQEAQQWVSGWRLNADSVLWGGHKVFMVKPEEPFQPVKEATQL [V157E] | 0.0369 | 0.055 |  | 0.0412 |  | 0.0462 | 0.0498 | 0.0477 | 0.0415 | 0.0783 | 0.0589 |  | 0.047 |  | 0.0494 | 0.0745 |  | 
MGESLFKGPRDYNPISSSICHLTNESDGHTTSLYGIGFGPFIITNKHLFRRNNGTLVVQSLHGVFKVKDTTTLQQHLVDGRDMIIIRMPKDFPPFPQKLKFREPQREERICLVTTNFQTKSMSSMVSDTSCTFPSGDGIFWKHWIVTKDGQCGSPLVSTRDGFIVGIHSASNFTNTNNYFTSVPKNFMELLTNQEAQQWVSGWRLNADSVLWGGHKVFMVKPEEPFQPVKEATQL [Q146V] | 0.0754 | 0.0467 |  | 0.058 |  | 0.101 | 0.0754 |  | 0.0964 |  | 0.0609 |  | 0.0775 |  | 0.0379 | 0.0568 |  | 
MGESLFKGPRDYNPISSSICHLTNESDGHTTSLYGIGFGPFIITNKHLFRRNNGTLVVQSLHGVFKVKDTTTLQQHLVDGRDMIIIRMPKDFPPFPQKLKFREPQREERICLSTTNFQTKSMSSMVSDTSCTFPSGDGIFWKHWIQTKDGQCGSPLVSTRDGFIVGIHSASNFTNTNNYFTSVPKNFMELLTNQEAQQWVSGWRLNADSVLWGGHKVFMVKPEEPFQPVKEATQL [V113S] | 0.102 | 0.0541 | 0.0741 | 0.0546 |  | 0.0323 |  | 0.0548 | 0.0629 | 0.0598 | 0.0648 | 0.0562 | 0.053 |  | 0.0461 | 0.053 | 0.047 | 
MGESLFKGPRDYNPISSSICHLTNESDGHTTSLYGIGFGPFIITNKHLFRRNNGTLVVQSLHGVFKVKDTTTLQQHLVDGRDMIIIRMPKDFPPFPQKLKFREPQREERICLVTTNFQTKSMSSMVSDTSCTFPSGDGIFWKHWIQMKDGQCGSPLVSTRDGFIVGIHSASNFTNTNNYFTSVPKNFMELLTNQEAQQWVSGWRLNADSVLWGGHKVFMVKPEEPFQPVKEATQL [T147M] | 0.0513 | 0.0571 |  |  |  |  | 0.072 |  | 0.0488 | 0.0553 |  | 0.0531 |  | 0.047 | 0.0603 |  |  | 
MGESLFKGPRDYNPISSSICHLTNESDGHTTSLYGIGFGPFIITNKHLFRRNNGTLVVQSLHGVFKVKDTTTLQQHLVDGRDMIIIRMPKDFPPFPQKLKFREPQREERICLVTYNFQTKSMSSMVSDTSCTFPSGDGIFWKHWIQTKDGQCGSPLVSTRDGFIVGIHSASNFTNTNNYFTSVPKNFMELLTNQEAQQWVSGWRLNADSVLWGGHKVFMVKPEEPFQPVKEATQL [T115Y] | 0.0565 | 0.0591 |  | 0.056 |  | 0.128 |  |  | 0.0681 | 0.0644 | 0.0459 | 0.0533 |  |  |  | 0.0608 | 0.0724 | 0.0517
MGESLFKGPRDYNPISSSICHLTNESDGHTTSLYGIGFGPFIITNKHLFRRNNGTLVVQSLHGVFKVKDTTTLQQHLVDGRDMIIIRMPKDFPPFPQKLKFREPQREERICLVTTNFQTKSMSSMVSDTSCTFPSGDGIFWKHWIQTKDGQCGSPLVSTRDGFIVGIHSYSNFTNTNNYFTSVPKNFMELLTNQEAQQWVSGWRLNADSVLWGGHKVFMVKPEEPFQPVKEATQL [A170Y] | 0.0642 | 0.0691 |  |  | 0.0625 | 0.0599 |  | 0.0518 | 0.0566 | 0.0623 | 0.0522 |  | 0.0564 |  | 0.0604 | 0.0531 |  | 0.0708
MGESLFKGPRDYNPISSSICHLTNESDGHTTSLYGIGFGPFIITNKHLFRRNNGTLVVQSLHGVFKVKDTTTLQQHLVDGRDMIIIRMPKDFPPFPQKLKFREPQREERICLVTTNFQTKSMSSMVSDTSCTFWSGDGIFWKHWIQTKDGQCGSPLVSTRDGFIVGIHSASNFTNTNNYFTSVPKNFMELLTNQEAQQWVSGWRLNADSVLWGGHKVFMVKPEEPFQPVKEATQL [P134W] | 0.0532 | 0.0451 | 0.0496 | 0.073 | 0.0438 |  |  |  | 0.053 | 0.0608 | 0.0414 |  |  |  |  | 0.0605 | 0.0185 | 
MGESLFKGPRDYNPISSSICHLTNESDGHTTSLYGIGFGPFIITNKHLFRRNNGTLVVQSLHGVFKVKDTTTLQQHLVDGRDMIIIRMPKDFPPFPQKLKFREPQREERIHLVTTNFQTKSMSSMVSDTSCTFPSGDGIFWKHWIQTKDGQCGSPLVSTRDGFIVGIHSASNFTNTNNYFTSVPKNFMELLTNQEAQQWVSGWRLNADSVLWGGHKVFMVKPEEPFQPVKEATQL [C111H] | 0.0821 | 0.0544 | 0.0701 | 0.0816 | 0.0536 |  | 0.0678 |  |  | 0.0506 | 0.0616 |  | 0.094 |  | 0.0618 | 0.0497 |  | 
MGESLFKGPRDYNPISSSICHLTNESDGHTTSLYGIGFGPFIITNKHLFRRNNGTLVVQSLHGVFKVKDTTTLQQHLVDGRDMIIIRMPKDFPPFPQKLKFREPQREERICLVTTNFQTKSMSSMVSDTSCTFPSGDGIFWKHWIQTKDGQCGSPLVNTRDGFIVGIHSASNFTNTNNYFTSVPKNFMELLTNQEAQQWVSGWRLNADSVLWGGHKVFMVKPEEPFQPVKEATQL [S158N] | 0.0697 | 0.0647 | 0.0728 | 0.0566 |  |  | 0.0502 |  |  | 0.0581 |  |  | 0.0741 |  |  | 0.0594 |  | 
